# Source: PubChem BioAssay (NCATS)
# Records with an inconclusive call do not appear. Calls come from the whole dose curve; as a rule, active = well fitted curve in the direction sought with a large enough effect; inconclusive = small, poorly fitted or top-dose-only effect, or another doubt; inactive = no such curve, though single readings can be large; an effect the other way counts as inactive or inconclusive. Some structures have more than one record in an assay (separate samples or runs), and their calls can disagree. For part of its entries the source gives two or more results. This list holds those alone. There may be further records. Values that stand side by side repeat one measurement in other runs, samples, wells, individuals or studies. Marks in square brackets tell the records apart. Letters hold for one entry only.
# Tests used:
# [1] = qHTS of pediatric cancer cell lines to identify multiple opportunities for drug repurposing: Primary screen for SK-N-MC cells (AID 1347093)
# [2] = qHTS of pediatric cancer cell lines to identify multiple opportunities for drug repurposing: Primary screen for BT-37 cells (AID 1347094)
# Procedure, shortened: (§1)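 Plated cells (500-1,000 per well, growth media) were allowed to settle for 5 hours, treated with compound dilutions for 48 hours, then lysed with CellTiter-Glo for 15 min at room temperature before luminescence reading.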
# [3] = qHTS of pediatric cancer cell lines to identify multiple opportunities for drug repurposing: Primary screen for NB-EBc1 cells (AID 1347095)
# [4] = qHTS of pediatric cancer cell lines to identify multiple opportunities for drug repurposing: Primary screen for NB1643 cells (AID 1347099); note: nearly all actives have a fitted effect of over 50% in size
# [5] = qHTS of pediatric cancer cell lines to identify multiple opportunities for drug repurposing: Primary screen for LAN-5 cells (AID 1347100)
# Procedure, shortened: (§2)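 Viability after 48 h compound treatment at 37C, 500-1,000 cells/well, read as ATP luminescence with CellTiter-Glo. Primary screens used 11-point (MIPE, 0.78 nM-46 µM) or 8-point (NPC, 0.59 nM-46 µM) final concentrations; follow-up screens used 11-point dilutions.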
# [6] = qHTS of pediatric cancer cell lines to identify multiple opportunities for drug repurposing: Primary screen for SJ-GBM2 cells (AID 1347091)
# Procedure, shortened: (§3)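 Viability measured as metabolically active cells via CellTiter-Glo luminescence following 48 hours of compound exposure, 11-point dilutions in confirmatory testing. 500-1,000 cells/well plated 5 hours before dosing; controls were DMSO and 2.3 µM bortezomib.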
# [7] = qHTS of pediatric cancer cell lines to identify multiple opportunities for drug repurposing: Primary screen for Saos-2 cells (AID 1347097); note: nearly all actives have a fitted effect of over 40% in size
# Procedure, shortened: as §1
# [8] = qHTS of pediatric cancer cell lines to identify multiple opportunities for drug repurposing: Primary screen for BT-12 cells (AID 1347101); note: nearly all actives have a fitted effect of over 25% in size
# Procedure, shortened: (§4)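 Cells (500-1,000/well) rested 5 h, then received compounds for 48 h; metabolically active cells were measured by CellTiter-Glo luminescence. Final concentrations spanned up to 46 µM (MIPE, 11-point) or 0.59 nM-46 µM (NPC, 8-point) in primary screens, 11-point in follow-ups.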
# [9] = qHTS of pediatric cancer cell lines to identify multiple opportunities for drug repurposing: Primary screen for OHS-50 cells (AID 1347103); note: nearly all actives have a fitted effect of over 40% in size
# Procedure, shortened: as §4
# [10] = qHTS of pediatric cancer cell lines to identify multiple opportunities for drug repurposing: Primary screen for MG 63 (6-TG R) cells (AID 1347105); note: nearly all actives have a fitted effect of over 50% in size
# Procedure, shortened: as §1
# [11] = qHTS of pediatric cancer cell lines to identify multiple opportunities for drug repurposing: Primary screen for Rh41 cells (AID 1347108); note: nearly all actives have a fitted effect of over 70% in size
# Procedure, shortened: as §1
# [12] = qHTS of pediatric cancer cell lines to identify multiple opportunities for drug repurposing: Primary screen for TC32 cells (AID 1347089); note: nearly all actives have a fitted effect of over 60% in size
# Procedure, shortened: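 qHTS, TC32, 48 h drug treatment, CellTiter-Glo luminescence as a proxy for metabolically active cells; primary top concentration 46 µM (MIPE 11-pt, NPC 8-pt); confirmatory 11-pt.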
# [13] = qHTS of pediatric cancer cell lines to identify multiple opportunities for drug repurposing: Primary screen for RD cells (AID 1347104); note: nearly all actives have a fitted effect of over 55% in size
# Procedure, shortened: as §1
# [14] = qHTS of pediatric cancer cell lines to identify multiple opportunities for drug repurposing: Primary screen for SK-N-SH cells (AID 1347098); note: nearly all actives have a fitted effect of over 65% in size
# Procedure, shortened: as §4
# [15] = qHTS of pediatric cancer cell lines to identify multiple opportunities for drug repurposing: Primary screen for DAOY cells (AID 1347090); note: nearly all actives have a fitted effect of over 55% in size
# Procedure, shortened: as §3
# [16] = qHTS of pediatric cancer cell lines to identify multiple opportunities for drug repurposing: Primary screen for U-2 OS cells (AID 1347096); note: nearly all actives have a fitted effect of over 50% in size
# Procedure, shortened: as §2
# [17] = qHTS of pediatric cancer cell lines to identify multiple opportunities for drug repurposing: Primary screen for control Hh wild type fibroblast cells (AID 1347106); note: nearly all actives have a fitted effect of over 55% in size
# Procedure, shortened: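 Cells (500-1,000/well) in growth media were settled 5 h at 37 degrees C, then given compounds for 48 h. Viability was read as CellTiter-Glo luminescence. Primary runs used MIPE at 11 points (0.78 nM-46 µM) and NPC at 8 points (0.59 nM-46 µM); follow-ups used 11 points.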
# [18] = qHTS of pediatric cancer cell lines to identify multiple opportunities for drug repurposing: Primary screen for Rh18 cells (AID 1347102); note: nearly all actives have a fitted effect of over 65% in size
# Procedure, shortened: as §2
# [19] = Counterscreen qHTS for small molecule stabilizers of the endoplasmic reticulum resident proteome: GLuc-NoTag assay (AID 1508627)
# Procedure, shortened: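 Counterscreen line: SH-SY5Y-GLuc-NoTag. Seed, 5 h; compound, 19 h; thapsigargin 100 nM, 4 h; 37C/5% CO2. Readout: secreted GLuc luminescence, coelenterazine 0.07x final, no lysis.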
# [20] = tested on: Zika virus NS2B-NS3 protease; test: Primary screen GU AMC qHTS for Zika virus inhibitors (AID 1347154); note: nearly all actives have a fitted effect of over 70% in size
# Procedure, shortened: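 Unlinked Zika NS2B hydrophilic domain–NS3 protease complex at 25 nM in 10 mM Tris-HCl pH 8.0, 0.01% Tween 20, with an AMC peptide substrate. Fluorescence change (340/450 nm) over 15 min at room temperature, normalized to controls, fitted to 4-parameter Hill.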
# Potency is the fitted concentration of half-maximal effect.
smiles,measurement,setting,value
CN1C(C(=O)Nc2ccccn2)=C(O)c2ccccc2S1(=O)=O,Potency,[1],inactive [sample A] and active: 3.32 µM [sample B]
same,Potency,[2],inactive [sample A] and active: 3.06 µM [sample B]
same,Potency,[3],inactive [sample A] and active: 1.66 µM [sample B]
same,Potency,[4],inactive [sample A] and active: 4.69 µM [sample B]
same,Potency,[5],inactive [sample A] and active: 2.64 µM [sample B]
Nc1nc2c(ncn2COC(CO)CO)c(=O)[nH]1,Potency,[6],active: 5.26 µM [sample A] and inactive [sample B]
same,Potency,[1],active: 23.5 µM [sample A] and inactive [sample B]
same,Potency,[2],active: 24.3 µM [sample A] and inactive [sample B]
same,Potency,[7],active: 18.7 µM [sample A] and inactive [sample B]
same,Potency,[8],active: 24.3 µM [sample A] and inactive [sample B]
same,Potency,[9],active: 27.3 µM [sample A] and inactive [sample B]
same,Potency,[10],active: 29.6 µM [sample A] and inactive [sample B]
same,Potency,[11],active: 23.5 µM [sample A] and inactive [sample B]
CN(C)c1nc(N(C)C)nc(N(C)C)n1,Potency,[1],inactive [sample A] and active: 18.7 µM [sample B]
NC(=O)NO,Potency,[12],inactive [sample A] and active: 20.8 µM [sample B]
same,Potency,[6],inactive [sample A] and active: 526 nM [sample B]
same,Potency,[1],inactive [sample A] and active: 1.18 µM [sample B]
same,Potency,[2],inactive [sample A] and active: 1.93 µM [sample B]
same,Potency,[3],inactive [sample A] and active: 5.9 µM [sample B]
same,Potency,[7],inactive [sample A] and active: 2.09 µM [sample B]
same,Potency,[8],inactive [sample A] and active: 1.72 µM [sample B]
same,Potency,[9],inactive [sample A] and active: 7.69 µM [sample B]
same,Potency,[13],inactive [sample A] and active: 3.32 µM [sample B]
same,Potency,[10],inactive [sample A] and active: 743 nM [sample B]
same,Potency,[11],inactive [sample A] and active: 2.35 µM [sample B]
COc1ccccc1OCC(O)CN1CCN(CC(=O)Nc2c(C)cccc2C)CC1 (stereo not drawn),Potency,[1],inactive [sample A] and active: 23.5 µM [sample B]
Cn1c(=O)c2[nH]cnc2n(C)c1=O,Potency,[1],inactive [sample A] and active: 18.7 µM [sample B]
CC(C)(Oc1ccc(C2CC2(Cl)Cl)cc1)C(=O)O (stereo not drawn),Potency,[6],active: 10.8 µM [sample A] and inactive [sample B]
same,Potency,[2],active: 39.5 µM [sample A] and inactive [sample B]
same,Potency,[3],active: 3.4 µM [sample A] and inactive [sample B]
same,Potency,[14],active: 35 µM [sample A] and inactive [sample B]
same,Potency,[5],active: 17.1 µM [sample A] and inactive [sample B]
Nc1nnc(-c2cccc(Cl)c2Cl)c(N)n1,Potency,[1],inactive [sample A] and active: 14.8 µM [sample B]
CCC1(c2ccccc2)C(=O)NCNC1=O,Potency,[15],active: 4.69 µM [sample A] and inactive [sample B]
same,Potency,[1],active: 935 nM [sample A] and inactive [sample B]
same,Potency,[14],active: 4.82 µM [sample A] and inactive [sample B]
same,Potency,[4],active: 8.33 µM [sample A] and inactive [sample B]
same,Potency,[13],active: 16.6 µM [sample A] and inactive [sample B]
same,Potency,[10],active: 5.9 µM [sample A] and inactive [sample B]
CC#C[C@]1(O)CC[C@H]2[C@@H]3CCC4=CC(=O)CCC4=C3[C@@H](c3ccc(N(C)C)cc3)C[C@@]21C,Potency,[12],inactive [sample A] and active: 20.8 µM [sample B]
CC12CC3CC(C)(C1)CC(N)(C3)C2,Potency,[15],active: 23.5 µM [sample A] and inactive [sample B]
same,Potency,[1],active: 5.9 µM [sample A] and inactive [sample B]
same,Potency,[4],active: 10.5 µM [sample A] and inactive [sample B]
same,Potency,[13],active: 18.7 µM [sample A] and inactive [sample B]
same,Potency,[11],active: 11.8 µM [sample A] and inactive [sample B]
CN(C)CCCN1c2ccccc2CCc2ccc(Cl)cc21,Potency,[15],active: 372 nM [sample A] and inactive [sample B]
same,Potency,[16],active: 9.35 µM [sample A] and inactive [sample B]
same,Potency,[4],active: 1.66 µM [sample A] and inactive [sample B]
same,Potency,[5],active: 9.35 µM [sample A] and inactive [sample B]
same,Potency,[10],active: 372 nM [sample A] and inactive [sample B]
same,Potency,[17],active: 264 nM [sample A] and inactive [sample B]
CC(C)NCC(O)c1ccc(O)c(O)c1 (stereo not drawn),Potency,[15],active: 3.72 µM [sample A] and inactive [sample B]
same,Potency,[6],active: 11.8 µM [sample A] and inactive [sample B]
same,Potency,[2],active: 13.7 µM [sample A] and inactive [sample B]
same,Potency,[3],active: 14.8 µM [sample A] and inactive [sample B]
same,Potency,[4],active: 1.32 µM [sample A] and inactive [sample B]
same,Potency,[5],active: 6.62 µM [sample A] and inactive [sample B]
same,Potency,[18],active: 5.9 µM [sample A] and inactive [sample B]
same,Potency,[13],active: 3.32 µM [sample A] and inactive [sample B]
same,Potency,[10],active: 5.9 µM [sample A] and inactive [sample B]
same,Potency,[11],active: 2.96 µM [sample A] and inactive [sample B]
NC12CC3CC(CC(C3)C1)C2,Potency,[1],active: 10.5 µM [sample A] and inactive [sample B]
same,Potency,[14],active: 24.1 µM [sample A] and inactive [sample B]
Cc1ccc(C(=O)Nc2ccc(S(=O)(=O)O)c3cc(S(=O)(=O)O)cc(S(=O)(=O)O)c23)cc1NC(=O)c1cccc(NC(=O)Nc2cccc(C(=O)Nc3cc(C(=O)Nc4ccc(S(=O)(=O)O)c5cc(S(=O)(=O)O)cc(S(=O)(=O)O)c45)ccc3C)c2)c1,Potency,[19],inactive [sample A] and active: 7.08 µM [sample B]
CC(CCc1ccc(O)cc1)NCCc1ccc(O)c(O)c1 (stereo not drawn),Potency,[4],active: 20.9 µM [sample A] and inactive [sample B]
COc1cc2nc(N3CCN(C(=O)c4ccco4)CC3)nc(N)c2cc1OC,Potency,[20],"inactive and active: 26.7 µM, 7 µM, 18.9 µM [separate samples]"
CC(C(=O)O)c1cccc(C(=O)c2ccccc2)c1 (stereo not drawn),Potency,[1],inactive [sample A] and active: 16.6 µM [sample B]
same,Potency,[4],inactive [sample A] and active: 18.7 µM [sample B]
same,Potency,[13],inactive [sample A] and active: 29.6 µM [sample B]
Cc1cnc(C(=O)NCCc2ccc(S(=O)(=O)NC(=O)NC3CCCCC3)cc2)cn1,Potency,[20],inactive [sample A] and active: 24.1 µM [sample B] and inactive [sample C]
CC1COc2c(N3CCN(C)CC3)c(F)cc3c(=O)c(C(=O)O)cn1c23 (stereo not drawn),Potency,[14],inactive [sample A] and active: 19.2 µM [sample B]
same,Potency,[4],inactive [sample A] and active: 4.69 µM [sample B]
CN1C2CCC1CC(OC(=O)C(CO)c1ccccc1)C2 (stereo not drawn),Potency,[19],inactive [sample A] and inactive [sample B] and active: 25.1 µM [sample C]
OCCN1CCN(CCCN2c3ccccc3Sc3ccc(C(F)(F)F)cc32)CC1,Potency,[3],active: 2.09 µM [sample A] and inactive [sample B]
same,Potency,[4],active: 14.8 µM [sample A] and inactive [sample B]
same,Potency,[5],active: 4.69 µM [sample A] and inactive [sample B]
CC1(CN2CCC(n3c(=O)[nH]c4ccccc43)CC2)OCc2ccccc2-n2cccc21 (stereo not drawn),Potency,[9],inactive [sample A] and active: 30.9 µM [sample B]
CC(C)Cc1ccc(C(C)C(=O)O)cc1 (stereo not drawn),Potency,[2],active: 1 nM [sample A] and inactive [sample B]
